# Source: PMC4336329 (PLoS ONE, 2015)
# Out of some 310,000 compounds screened, about 2,200 (0.71%) showed an effect of 50% or more. Effects have a minus sign here. This is one part of the list.
# Biological target: human ether-à-go-go-related gene (hERG) potassium channel (human, UniProt Q12809)
# Assay: primary screen, population patch clamp on CHO cells stably expressing hERG
# human ether-à-go-go-related gene (hERG) potassium channel, sequence (Q12809 whole entry, looked up): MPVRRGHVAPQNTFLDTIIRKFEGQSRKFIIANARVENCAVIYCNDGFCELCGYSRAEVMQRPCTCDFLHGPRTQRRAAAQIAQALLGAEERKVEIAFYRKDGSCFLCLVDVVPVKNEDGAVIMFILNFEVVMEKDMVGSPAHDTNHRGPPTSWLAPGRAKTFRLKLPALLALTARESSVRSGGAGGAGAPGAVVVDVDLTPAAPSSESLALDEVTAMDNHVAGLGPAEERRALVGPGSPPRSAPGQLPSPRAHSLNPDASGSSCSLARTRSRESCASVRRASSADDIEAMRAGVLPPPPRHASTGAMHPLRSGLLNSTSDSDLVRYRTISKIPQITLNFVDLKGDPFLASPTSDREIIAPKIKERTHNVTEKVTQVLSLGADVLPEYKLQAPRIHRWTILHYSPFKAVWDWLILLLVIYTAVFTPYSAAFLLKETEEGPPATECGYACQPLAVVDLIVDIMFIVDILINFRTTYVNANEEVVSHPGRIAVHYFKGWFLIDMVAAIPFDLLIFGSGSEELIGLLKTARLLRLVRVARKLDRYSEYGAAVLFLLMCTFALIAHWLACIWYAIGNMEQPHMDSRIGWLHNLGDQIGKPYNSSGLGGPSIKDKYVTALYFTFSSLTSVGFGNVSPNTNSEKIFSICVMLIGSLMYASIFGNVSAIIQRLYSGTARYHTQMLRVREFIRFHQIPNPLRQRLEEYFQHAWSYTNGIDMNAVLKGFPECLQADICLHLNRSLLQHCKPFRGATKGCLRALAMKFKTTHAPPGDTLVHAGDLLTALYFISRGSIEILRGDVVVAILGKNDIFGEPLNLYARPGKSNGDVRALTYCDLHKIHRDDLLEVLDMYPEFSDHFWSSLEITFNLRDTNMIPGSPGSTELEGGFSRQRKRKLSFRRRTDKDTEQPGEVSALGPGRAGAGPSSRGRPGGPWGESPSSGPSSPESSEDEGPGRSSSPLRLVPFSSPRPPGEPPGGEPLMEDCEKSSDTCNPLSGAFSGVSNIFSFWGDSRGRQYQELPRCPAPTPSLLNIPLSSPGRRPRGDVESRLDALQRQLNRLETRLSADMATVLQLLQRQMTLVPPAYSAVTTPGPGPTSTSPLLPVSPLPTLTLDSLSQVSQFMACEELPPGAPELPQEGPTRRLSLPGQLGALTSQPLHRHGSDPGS
row,Compound,"hERG current change (%, negative = inhibition) at 1uM"
1,CC(C(=O)Nc1sc2c(c1C(=O)NCc1ccco1)CCCC2)N1C(=O)c2ccccc2C1=O (stereo not shown),15.4%
2,COC(=O)C(Cc1ccccc1)NC(=O)CCC(=O)NC(C)CCc1ccccc1 (stereo not shown),14.1%
3,Cc1cc(C)c2cc(CN(Cc3ccco3)C(=O)NCc3ccccc3)c(=O)[nH]c2c1,3.27%
4,CC(=O)Nc1ccc(NC(=O)c2ccc(N(Cc3ccccc3C)S(C)(=O)=O)cc2)cc1,8.92%
5,CCCCOCCCNC(=O)N[C@H](C(=O)OC)C(C)CC (stereo partly shown),7.43%
6,CCOc1ccc(NC(=O)CC2C(=O)N(c3ccc(OC)cc3)C(=O)N2Cc2ccc(OC)cc2)cc1 (stereo not shown),2.84%
7,CCOc1ccc(Oc2ccc(Cl)cc2NC(=O)C2=COCCO2)cc1,-0.825%
8,N#Cc1ccccc1OCC(=O)N(Cc1nnc(-c2ccccc2Cl)o1)C1CC1,6.6%
9,Cc1cc(S(=O)(=O)NC2CCCC2)ccc1F,2.27%
10,CCO[C@@H]1OC(C(=O)NCc2nc3ccccc3[nH]2)=C[C@H](C(C)(C)C)[C@H]1CCCO,-2.77%
11,CC(NC(=S)Nc1ccc(OC(F)F)cc1)c1ccc(F)cc1 (stereo not shown),-0.896%
12,CN(CC(=O)Nc1ccc(N2CCOCC2)cc1)C(=O)COc1ccccc1F,3.14%
13,CCn1c2ccccc2c2nnc(SCC(=O)c3c(N)n(C)c(=O)n(C)c3=O)nc21,8.62%
14,O=C(c1cccnc1)N(Cc1ccccc1)C1(C(=O)Nc2ccccc2)CCCCC1,5.34%
15,Cc1ccc(NC2c3ccccc3C(=O)N2CCN2CCOCC2)cc1 (stereo not shown),6.03%
16,CCC1Oc2ccc(C)cc2N(CC(=O)NCC2COc3ccccc3O2)C1=O (stereo not shown),12.4%
17,Cc1cc(C)c2sc(NC(=O)CN3C(=O)CCC3=O)nc2c1,-3.92%
18,CC(C)C[C@@]12C(=O)N(c3cccc(F)c3)C(=O)N1[C@H](c1ccc(F)cc1)[C@@H]1C(=O)N(C3CCCCC3)C(=O)[C@@H]12,0.173%
19,COc1cc2c(cc1OC)CN(C(=O)COc1ccc(C)c(C)c1)CC2,13.5%
20,Cc1cc(Br)ccc1NC(=S)Nc1cccc([N+](=O)[O-])c1,7.43%
21,C=CCn1c(CCNC(=O)c2cccs2)nnc1SCC(=O)Nc1cccc(Cl)c1C,-26.1%
22,N#Cc1nc(COc2ccccc2)oc1NCCN1CCOCC1,2.09%

row,Compound,"hERG current change (%, negative = inhibition) at 1uM"
1,COC(=O)c1ccccc1NC(=O)c1cnn2c(C)cc(C)nc12,-20.3%
2,COc1ccc(CC(=O)NCc2ccccc2Cl)cc1S(=O)(=O)N1CCOCC1,5.71%
3,CN(C)S(=O)(=O)c1cccc(C(=O)NCc2cccs2)c1,-0.192%
4,CC(C)(C)c1ccc(C(=O)NCC(=O)N2CCCCCC2)cc1,8.55%
5,Fc1cc(F)c2nc(N3CCCCC3)sc2c1,8.39%
6,O=C(CCc1ccccc1)OCCOC(=O)CCc1ccccc1,21.6%
7,CCN1CCN(C(c2cccs2)C(C)NC(=O)c2ccco2)CC1 (stereo not shown),5.54%
8,CN(C1CCCC1)C1CCN(C(=O)CNC(=O)/C=C/c2cccc(C(F)(F)F)c2)CC1,-29.5%
9,Br.Cc1csc(=Nc2ccccc2)n1Cc1ccco1,12.7%
10,Nc1nc(-c2ccccc2)[nH]c(=O)c1N=O,13.6%
11,O=C(Nc1nc(-c2ccccn2)cs1)c1ccc2c(c1)OCCO2,15%
12,O=C(C1CCC(CNc2nc(=S)[nH]c3ccccc23)CC1)N1CCN(c2ccccn2)CC1 (stereo not shown),8.27%
13,CCc1ccc(-c2cc(C)no2)cc1S(=O)(=O)N1CCN(c2cc(C)ccc2C)CC1,2.48%
14,O=C(NNC(=O)C1CCC1)c1ccc(Br)cc1,8.96%
15,C=CCN(C(=O)c1ccc(Cl)cc1)c1ccccc1C(=O)NCC(=O)O,18.1%
16,CCC(=O)N1CCCc2cc(S(=O)(=O)NCc3cccs3)ccc21,9.42%
17,O=C(Nc1ccccc1)O/N=C1\CCCCC1c1ccc([N+](=O)[O-])cc1[N+](=O)[O-] (stereo not shown),-11.9%
18,Cc1ccc(-c2nnn(CC(=O)NCc3ccccc3)n2)c(-n2cnnn2)c1,-6.6%
19,COc1ccc(-n2nc(C(=O)NCC(=O)NCCc3ccc(OC)c(OC)c3)c3ccccc3c2=O)cc1,12.7%
20,Cc1ccc2nc(SCC(=O)NCc3ccc(F)cc3)nc(=O)n2c1,-6.2%
21,CNC(=O)c1[nH]nc2c1CCc1ccccc1-2,9.24%
22,COc1cccc(-c2nc(CS(=O)(=O)CC(=O)NCCCN3CCc4ccccc4C3)c(C)o2)c1,-56.3%

row,Compound,"hERG current change (%, negative = inhibition) at 1uM"
1,N#Cc1ccc(S(=O)(=O)N2CCN(Cc3cccs3)CC2)cc1,-9.64%
2,Cc1ccc(CNC(=O)[C@H](C)NC(=O)C2CCN(C(=O)[C@@H](N)CC(C)C)CC2)cc1,6.77%
3,Cl.OCCN(CCO)CC(O)COc1ccc(C23CC4CC(CC(C4)C2)C3)cc1 (stereo not shown),2.27%
4,CCOC(=O)c1cnc(-c2cccc(OC)c2)[nH]c1=O,1.79%
5,CCN(CC)C(=O)Cn1nc(-c2ccccc2O)nc1SCC(=O)Nc1ccc(OC)cc1,-12.1%
6,O=C(CSc1ncnc2ccccc12)NCCCO,1.04%
7,O=C(NC(Cc1ccc(O)cc1)C(=O)O)c1ccc2c(c1)OCO2 (stereo not shown),6.27%
8,CCOC(=O)CNc1c(-c2ccccc2)nc2ccc(Cl)cn12,-27.6%
9,CC(C)(C)OC(=O)N1CCN(C(=O)c2nc[nH]c2C(=O)N2CCN(C(=O)OC(C)(C)C)CC2)CC1,18.4%
10,Cc1nnc(N2C(=O)C(=O)/C(=C(/O)c3ccc4c(c3)CC(C)O4)C2c2ccccc2F)s1 (stereo not shown),16.8%
11,Cc1nc(C)c(C(=O)OCC(=O)N2CCN(c3ccccc3)CC2)s1,6.34%
12,CCCCN(C)C(=O)c1cn(CC)c2nc(C)ccc2c1=O,-0.182%
13,N#CN=C1SCCS1,15.1%
14,COc1c2ccoc2nc2c(OC)c(OCC(OC(C)=O)C(C)(C)O)ccc12 (stereo not shown),15.3%
15,CCN1C(=O)c2ccccc2S(=O)(=O)c2ccc(C(=O)NCC(OC)OC)cc21,11.2%
16,[N-]=[N+]=CC(=O)C(c1ccccc1)(c1ccccc1)c1ccccc1,18.4%
17,Cc1ccc(OCC(=O)NC(=S)Nc2ccc(S(=O)(=O)Nc3cc(C)on3)cc2)c(Br)c1,11.3%
18,O=C(NC1CCCCCCC1)c1cc(-c2ccccn2)nc2ccccc12,18.4%
19,Nc1cc(C(F)(F)F)ccc1-n1cccc1,10.9%
20,CC1(C)CC(=O)C=C(NC2CCCC(O)C2)C1 (stereo not shown),12.2%
21,O=C(CN1C(=O)CCC1=O)Nc1ccc(S(=O)(=O)N2CCOCC2)cc1,7.37%
22,Cc1ccc(Nc2cc(=O)oc3ccccc23)c(C)c1,3.93%

row,Compound,"hERG current change (%, negative = inhibition) at 1uM"
1,CC(=O)Nc1ccc(S(=O)(=O)N2CCN(c3ccc([N+](=O)[O-])c(NCCN4CCOCC4)c3)CC2)cc1,-1.34%
2,O=C(Cc1ccccc1)Nc1nccs1,3.82%
3,COC(=O)c1c(-n2c(C)cc(C=O)c2C)sc2c1CCCC2,9.3%
4,CCOC(=O)C1=C(C)NC(C)=C(C(=O)OCC)C1c1nc2ccccc2[nH]1,12.9%
5,O=c1[nH]cnc2ccc([N+](=O)[O-])cc12,2.51%
6,OCCSc1nc(-c2cccnc2)nc2ccccc12,6.99%
7,O=C(O)C=C1C2CC3CC(C2)CC1C3,0.291%
8,COc1ccc(-c2cc(-c3cccs3)nc3sc(C#N)c(N)c23)cc1,8.56%
9,Cc1cc(C)c(S(=O)(=O)c2cc(F)ccc2C)c(Cl)n1,13%
10,COc1ccc(/C(N)=N/OC(=O)CCCc2ccccc2)cc1OC,2.51%
11,O=P(c1ccccc1)(c1ccccc1)c1nc2ccccc2s1,-4.05%
12,Br.COc1ccc(/C(O)=C/Sc2nnc(Cc3ccccc3)o2)cc1,2.53%
13,C/C(N)=C(/C#N)C(=O)COC(=O)CSc1ccccc1,15.5%
14,CC(C)(C)OC(=O)N1CCC[C@H]1c1nnc(SCc2ccccc2Cl)o1,13.3%
15,NC(=O)Cn1nc([N+](=O)[O-])nc1Oc1ccccc1C(=O)N1CCOCC1,5.66%
16,Cc1cnc(C(=O)OC(C)C(=O)NCc2ccccc2)cn1 (stereo not shown),6.71%
17,CC(C(=O)N1CCN(Cc2ccc3c(c2)OCO3)CC1)c1ccc([N+](=O)[O-])cc1 (stereo not shown),-7.34%
18,CCOc1ccc(C(C)=O)cc1CN1C(=O)c2ccccc2S1(=O)=O,11.7%
19,Cc1ccc(C(=O)Nc2ccc(Cl)cn2)cc1,8.03%
20,Cc1ccc(C)c(NC(=S)NCCCN2CCOCC2)c1,4.62%
21,Cc1cc(NC(=O)CSc2cn(C)c3ccccc23)no1,10.4%
22,O=C(NC1CCCCC1)C(c1cccs1)N(CC1CCCO1)C(=O)c1csnn1 (stereo not shown),8.37%
